In PMC3599065 one finds binding data, which are given here for 4 molecules.

Assay in all cases: pull-down; lysates of HEK293T cells expressing a TAP-tagged JIP1 or JIP3 construct with V5-KLC, V5-KHC and a GFP-tagged partner (GFP-JIP3, GFP-JIP1, GFP-DLK or GFP-APP-C constructs), precipitated with streptavidin sepharose, western blot
On the technique in general: In western blotting, separated proteins are transferred to a membrane and probed.

One assay addresses T1, TAP-JIP1-dCT (mouse) (UniProt Q9WVI9).
T1 sequence: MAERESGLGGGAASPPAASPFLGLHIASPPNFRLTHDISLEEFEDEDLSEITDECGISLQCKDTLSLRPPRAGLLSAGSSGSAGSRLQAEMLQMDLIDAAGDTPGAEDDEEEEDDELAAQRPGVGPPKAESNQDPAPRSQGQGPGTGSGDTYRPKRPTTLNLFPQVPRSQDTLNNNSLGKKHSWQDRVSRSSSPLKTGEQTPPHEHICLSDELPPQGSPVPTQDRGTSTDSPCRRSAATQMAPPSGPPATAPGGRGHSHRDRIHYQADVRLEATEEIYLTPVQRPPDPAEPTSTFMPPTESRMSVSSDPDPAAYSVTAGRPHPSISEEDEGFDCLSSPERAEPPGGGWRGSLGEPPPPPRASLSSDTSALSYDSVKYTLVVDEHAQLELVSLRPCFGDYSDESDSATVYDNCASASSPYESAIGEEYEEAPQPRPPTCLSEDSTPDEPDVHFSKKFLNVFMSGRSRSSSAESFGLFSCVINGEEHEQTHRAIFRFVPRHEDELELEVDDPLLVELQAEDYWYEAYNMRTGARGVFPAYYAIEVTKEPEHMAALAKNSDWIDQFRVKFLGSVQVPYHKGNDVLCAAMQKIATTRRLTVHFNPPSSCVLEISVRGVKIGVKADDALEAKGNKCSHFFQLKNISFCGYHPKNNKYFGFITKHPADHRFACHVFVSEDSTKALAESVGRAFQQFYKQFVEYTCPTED

Assay [1] deals with T2, TAP-JIP1-WT (in HEK293T) (mouse) (UniProt Q9WVI9).
T2 sequence: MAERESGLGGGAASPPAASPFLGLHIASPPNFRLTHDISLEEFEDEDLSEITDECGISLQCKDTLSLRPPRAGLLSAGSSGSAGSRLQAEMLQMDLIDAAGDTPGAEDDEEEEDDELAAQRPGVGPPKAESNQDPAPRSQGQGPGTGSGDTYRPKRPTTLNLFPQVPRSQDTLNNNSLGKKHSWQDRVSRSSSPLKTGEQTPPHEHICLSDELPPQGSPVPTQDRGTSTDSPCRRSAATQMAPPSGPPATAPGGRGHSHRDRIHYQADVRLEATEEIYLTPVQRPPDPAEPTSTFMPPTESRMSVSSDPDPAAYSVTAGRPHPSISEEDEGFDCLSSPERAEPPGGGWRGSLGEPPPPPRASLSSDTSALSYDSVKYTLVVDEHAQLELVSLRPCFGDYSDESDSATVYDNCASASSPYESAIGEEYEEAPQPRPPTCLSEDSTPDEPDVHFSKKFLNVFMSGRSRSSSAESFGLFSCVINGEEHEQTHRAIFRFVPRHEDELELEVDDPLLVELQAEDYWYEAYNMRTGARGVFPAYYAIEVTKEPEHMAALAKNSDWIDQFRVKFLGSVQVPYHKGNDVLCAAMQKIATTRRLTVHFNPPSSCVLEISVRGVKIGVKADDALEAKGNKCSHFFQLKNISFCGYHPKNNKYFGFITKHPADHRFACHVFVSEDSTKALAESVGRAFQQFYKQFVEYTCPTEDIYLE

The next assay has as its target T3, TAP-JIP3-WT (mouse) (UniProt Q9ESN9).
T3 sequence: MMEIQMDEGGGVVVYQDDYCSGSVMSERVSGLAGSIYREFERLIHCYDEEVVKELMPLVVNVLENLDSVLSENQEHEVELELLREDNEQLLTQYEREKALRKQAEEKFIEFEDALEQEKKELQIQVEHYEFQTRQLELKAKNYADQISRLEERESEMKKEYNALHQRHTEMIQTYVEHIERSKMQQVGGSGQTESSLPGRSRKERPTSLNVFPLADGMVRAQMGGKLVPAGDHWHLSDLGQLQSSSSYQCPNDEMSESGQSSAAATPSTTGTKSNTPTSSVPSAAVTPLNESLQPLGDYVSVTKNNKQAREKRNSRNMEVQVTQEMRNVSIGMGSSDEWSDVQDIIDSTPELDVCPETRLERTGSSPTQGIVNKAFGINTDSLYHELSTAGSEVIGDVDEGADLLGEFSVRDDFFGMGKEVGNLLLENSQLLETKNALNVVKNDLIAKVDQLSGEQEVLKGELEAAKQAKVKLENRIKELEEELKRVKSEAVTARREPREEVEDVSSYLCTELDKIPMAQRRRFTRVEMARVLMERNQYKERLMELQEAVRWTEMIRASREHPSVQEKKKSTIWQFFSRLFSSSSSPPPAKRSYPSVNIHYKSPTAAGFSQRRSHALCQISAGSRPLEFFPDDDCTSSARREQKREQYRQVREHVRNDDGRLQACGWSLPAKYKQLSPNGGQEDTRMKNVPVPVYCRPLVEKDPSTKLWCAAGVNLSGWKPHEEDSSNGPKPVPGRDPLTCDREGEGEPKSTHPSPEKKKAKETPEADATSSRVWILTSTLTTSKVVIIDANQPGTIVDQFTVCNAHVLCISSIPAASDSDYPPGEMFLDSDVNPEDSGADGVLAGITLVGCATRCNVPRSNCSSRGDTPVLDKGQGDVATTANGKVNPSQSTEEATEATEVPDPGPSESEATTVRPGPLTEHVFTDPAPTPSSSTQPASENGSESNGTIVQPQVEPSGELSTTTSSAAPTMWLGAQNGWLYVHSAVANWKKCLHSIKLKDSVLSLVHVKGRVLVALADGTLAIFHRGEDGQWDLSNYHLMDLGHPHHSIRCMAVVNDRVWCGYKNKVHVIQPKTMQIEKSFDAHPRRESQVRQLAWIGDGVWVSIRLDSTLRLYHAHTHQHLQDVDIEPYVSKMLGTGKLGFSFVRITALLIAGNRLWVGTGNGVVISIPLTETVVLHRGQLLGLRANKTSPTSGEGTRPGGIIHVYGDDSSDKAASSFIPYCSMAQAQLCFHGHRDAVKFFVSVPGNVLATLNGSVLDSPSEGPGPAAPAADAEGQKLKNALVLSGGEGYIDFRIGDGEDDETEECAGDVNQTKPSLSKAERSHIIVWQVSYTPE

Numbering of substitutions follows the chain as printed. Results are given in words; binding and its absence hold for the method and conditions named. Binding seen in cells or lysates may run through a third protein. Some results given as binding are weak or reduced against the parent protein; the word gives no strength. Sequences can lack the tags named with a protein.

B1: GFP-JIP3-WT (protein, UniProt Q9ESN9 1-1337)
chain: T3 sequence
As to B1, the binding result (with TAP-JIP1-dCT (mouse); in assay [1]) was “binds” each time.

B2: GFP-JIP3-LZ4A (protein, UniProt Q9ESN9 1-1337)
chain: T3 sequence with L431A, L438A, L452A, L459A
On to B2, for which the binding entry in assay [1] was “binds”.

B3: GFP-JIP1-WT (in HEK293T) (protein, UniProt Q9WVI9 1-707)
chain: T2 sequence
Turning to B3, the binding entry with TAP-JIP3-WT (mouse) was “binds”.

B4: GFP-DLK (protein, UniProt Q63796 1-888)
chain: MACLHETRTPSPSFGGFVSTLSEASMRKLDPDTSDCTPEKDLTPTQCVLRDVVPLGGQGGGGPSPSPGGEPPPEPFANSVLQLHEQDTGGPGGATGSPESRASRVRADEVRLQCQSGSGFLEGLFGCLRPVWTMIGKAYSTEHKQQQEDLWEVPFEEILDLQWVGSGAQGAVFLGRFHGEEVAVKKVRDLKETDIKHLRKLKHPNIITFKGVCTQAPCYCILMEFCAQGQLYEVLRAGRPVTPSLLVDWSMGIAGGMNYLHLHKIIHRDLKSPNMLITYDDVVKISDFGTSKELSDKSTKMSFAGTVAWMAPEVIRNEPVSEKVDIWSFGVVLWELLTGEIPYKDVDSSAIIWGVGSNSLHLPVPSSCPDGFKILLRQCWNRKPRNRPSFRQILLHLDIASADVLSTPQETYFKSQAEWREEVKLHFEKIKSEGTCLHRLEEELVMRRREELRHALDIREHYERKLERANNLYMELNALMLQLELKERELLRREQALERRCPGLLKSHTSRSLLHGNTMEKLIKKRNVPQKLSPHSKRPDILKTESLLPKLDAALSGVGLPGCPKAPPSPGRSRRGKTRHRKASAKGSCGDLPGLRAALPPHEPGGLGSPGGLGVGPTAWDASPPALRGLHHDLLLRKMSSSSPDLLSAALGARGRGATGGARDPGSPPPPQGDTPPSEGSAPGSTSPDSPGGAKGEPPPPVGPGEGVGLLGTGREGTTGRGGSRAGYQHLTPAALLYRAAVTRSQKRGISSEEEEGEVDSEVELPPSQRWPQGPNMRQSLSTFSSENPSDVEEGTASEPSPSGTPEVGSTNTDERPDERSDDMCSQGSEIPLDLPTSEVVPERETSSLPMQHQDDQGPNPEDSDCDSTELDNSNSIDALPPPASLPP
Turning to B4, the binding entry in assay [1] is reported as “binds”.
